B1: PhoQ; a variant is named by its letters at X, in order, P23837 (parent)
chain: MKKLLRLFFPLSLRVRFLLATAAVVLVLSLAYGMVALIGYSVSFDKTTFRLLRGESNLFYTLAKWENNKLHVELPENIDKQSPTMTLIYDENGQLLWAQRDVPWLMKMIQPDWLKSNGFHEIEADVNDTSLLLSGDHSIQQQLQEVREDDDDAEMTHSVAVNVYPATSRMPKLTIVVVDTIPVELKSSYMVWSWFIYVLSANLLLVIPLLWVAAWWSLRPIEALAKEVRELEEHNRELLNPATTRELTSLVRNLNRLLKSERERYDKYRTTLTDLTHSLKTPLXXLQXXLRSLRSEKMSVSDAEPVMLEQISRISQQIGYYLHRASMRGGTLLSRELHPVAPLLDNLTSALNKVYQRKGVNISLDISPEISFVGEQNDFVEVMGNVLDNACKYCLEFVEISARQTDEHLYIVVEDDGPGIPLSKREVIFDRGQRVDTLRPGQGVGLAVAREITEQYEGKIVAGESMLGGARMEVIFGRQHSAPKDE

The list shows a part of the results. Some results are limits rather than exact numbers.

In the test the parent is B1. The experiment in a line: enrichment ratio after two sorts for PhoP signalling (ratio (wild type AVST 3.29)); higher = more functional. To be noted: with PhoP (E. coli).
As for YEPI, the enrichment ratio was at most 0.25.
The same measure for KNAW: at most 0.25; for PQAN: at most 0.25; for KIWS: at most 0.25.
The same measure for QALY: at most 0.25.
The same measure for FYWC: at most 0.25; for LTWN: at most 0.25; for RVMV: at most 0.25.
Take PKTM: the enrichment ratio is at most 0.25.
For the variant RDRL, the enrichment ratio was at most 0.25.
The same measure for KGST: at most 0.25; for RYYT: at most 0.25.
The same measure for AMTP: at most 0.25; for LVYL: at most 0.25; for QKWL: at most 0.25.
With MHHH, the enrichment ratio was at most 0.25.
The same measure for VGMP: at most 0.25; for KPSV: at most 0.25; for GMQG: at most 0.25.
The same measure for WYIG: at most 0.25; for FAIG: at most 0.25.
As to TEAL, the enrichment ratio was 14.7.
In the case of ICFP, the enrichment ratio is at most 0.25.
The same measure for FTIR: at most 0.25; for RANA: at most 0.25.
The same measure for PYLH: at most 0.25; for KSKV: at most 0.25; for FICE: at most 0.25.
The same measure for VGAY: at most 0.25; for WDCH: at most 0.25.
PMIE: the enrichment ratio was at most 0.25.
On to QIAG, for which the enrichment ratio was at most 0.25.
For the variant DYAT, the enrichment ratio was at most 0.25.
The same measure for FCIV: at most 0.25; for YQAQ: at most 0.25.
The same measure for FDQQ: at most 0.25.
The same measure for VTVS: at most 0.25; for ITNL: at most 0.25; for KYDD: at most 0.25.
RLMH: the enrichment ratio is at most 0.25.
The same measure for DDEP: at most 0.25; for DCRG: at most 0.25.
The same measure for QKMT: at most 0.25; for IMRL: at most 0.25; for DMIF: at most 0.25.
The same measure for HNKH: at most 0.25; for SFRN: at most 0.25; for RQCP: at most 0.25.
As to SLNR, the enrichment ratio is at most 0.25.
The same measure for SRPT: at most 0.25.
The same measure for VEFQ: at most 0.25; for NWHW: at most 0.25.
The same measure for ISKY: at most 0.25; for NFKP: at most 0.25.
For QRSK, the enrichment ratio was at most 0.25.
For YIIL, the enrichment ratio is at most 0.25.
As for HTFL, the enrichment ratio is at most 0.25.
The same measure for LYHA: at most 0.25; for VIVF: at most 0.25; for FNKD: at most 0.25.
The same measure for NPQW: at most 0.25; for GLKW: at most 0.25; for NDSM: at most 0.25.
The same measure for PLTV: at most 0.25; for HFIK: at most 0.25.
Regarding AWQQ, the enrichment ratio was at most 0.25.
The same measure for PFIT: at most 0.25; for YDRK: at most 0.25; for QESF: at most 0.25.
Regarding DFTC, the enrichment ratio is at most 0.25.
The same measure for GPDT: at most 0.25.
Turning to DVHN, the enrichment ratio was at most 0.25.
Turning to SMGM, the enrichment ratio came out at 5.78.
For EHIK, the enrichment ratio was at most 0.25.
The same measure for VPEP: at most 0.25; for TTMY: 7.68.
The same measure for YWIN: at most 0.25.
The same measure for GYYD: at most 0.25; for INEV: at most 0.25.
As to RHPE, the enrichment ratio is at most 0.25.
For RNEY, the enrichment ratio is at most 0.25.
On to VALA, for which the enrichment ratio was determined as 0.962.
The same measure for AVAT: at most 0.25; for TRHE: at most 0.25.
The same measure for PDAY: at most 0.25; for TLGA: 4.68.
The same measure for SQTM: 6.18; for RWMR: at most 0.25; for YNPE: at most 0.25.
YMML: the enrichment ratio is at most 0.25.
For VRAF, the enrichment ratio was at most 0.25.
For KMQG, the enrichment ratio was at most 0.25.
The same measure for AHNI: at most 0.25.
As for GTQG, the enrichment ratio was at most 0.25.
As for KQVL, the enrichment ratio was at most 0.25.
The same measure for VVQC: 12.7; for MKLE: at most 0.25.
The same measure for RGRK: at most 0.25.
With YWRK, the enrichment ratio was at most 0.25.
In the case of FQST, the enrichment ratio was at most 0.25.
The same measure for VEVL: 0.477.
Take HKPG: the enrichment ratio is at most 0.25.
The same measure for YHVK: at most 0.25; for RFTS: at most 0.25; for DQIH: at most 0.25.
In the case of KPIF, the enrichment ratio is at most 0.25.
The same measure for RMWH: at most 0.25; for VVCW: at most 0.25.
Turning to CNSQ, the enrichment ratio is at most 0.25.
For the variant AEKL, the enrichment ratio is at most 0.25.
The same measure for FEKN: at most 0.25.
The same measure for TPKP: at most 0.25; for EIKS: at most 0.25.
The same measure for NYLC: at most 0.25.
On to DVSR, for which the enrichment ratio is at most 0.25.
The same measure for THVQ: at most 0.25.
The same measure for FPTV: at most 0.25; for YRPE: at most 0.25.
The same measure for EPKC: at most 0.25.
Consider VEKR, for which the enrichment ratio was at most 0.25.
The same measure for DLAA: at most 0.25; for IRFE: at most 0.25.
The same measure for KNYE: at most 0.25; for SAVN: 8.55; for PILE: at most 0.25.
Regarding GMAA, the enrichment ratio is at most 0.25.
The same measure for LAVG: at most 0.25; for NFQY: at most 0.25; for RRNS: at most 0.25.
With SGAT, the enrichment ratio stood at 5.6.
As to NLHR, the enrichment ratio is at most 0.25.
The same measure for DGYP: at most 0.25; for IGIY: at most 0.25.
The same measure for LMAQ: at most 0.25; for ERPW: at most 0.25.
The same measure for HADW: at most 0.25; for QYGL: at most 0.25.
As to SHIF, the enrichment ratio was at most 0.25.
The same measure for EKYQ: at most 0.25; for SHSC: at most 0.25.
The same measure for IYTD: at most 0.25; for IDVD: at most 0.25; for ADRM: at most 0.25.
The same measure for AENS: 16; for MAMK: at most 0.25.
Take SETN: the enrichment ratio was determined as 7.01.
The same measure for VAPL: at most 0.25.
The same measure for LYWV: at most 0.25.
The same measure for DFYL: 1.73.
For GCVK, the enrichment ratio was at most 0.25.
The same measure for YDMP: at most 0.25; for SAIL: 2.01; for GLLR: at most 0.25.
